Substitutions are numbered along the chain they refer to; changes in the protein carry UniProt numbers. The list shows a part of the results.
T1: RBFOX1 RRM (Homo sapiens, UniProt Q9NWB1 109-208)
T1 sequence: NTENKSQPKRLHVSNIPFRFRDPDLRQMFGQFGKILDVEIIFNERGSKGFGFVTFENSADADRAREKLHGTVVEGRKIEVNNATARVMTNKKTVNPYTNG

B1: GCUCAUC (DNA:RNA)
RNA: GGGAGACCGGAAUUCAGAUUGUCCGCUCAUCUUAAAUCCCGUCGUAGCCACCA
DNA 1: CAATCTGAATTCCGGTCTCCC
DNA 2: TGGTGGCTACGACGGGATT
B2: AUUGCUG (DNA:RNA)
RNA: B1 RNA with G25A, C26U, C28G, A29C, C31G
DNA 1: CAATCTGAATTCCGGTCTCCC
DNA 2: TGGTGGCTACGACGGGATT
B3: UAUGGAU (DNA:RNA)
RNA: B1 RNA with G25U, C26A, C28G, A29G, U30A, C31U
DNA 1: CAATCTGAATTCCGGTCTCCC
DNA 2: TGGTGGCTACGACGGGATT
B4: AUAUUUU (DNA:RNA)
RNA: B1 RNA with G25A, C26U, U27A, C28U, A29U, C31U
DNA 1: CAATCTGAATTCCGGTCTCCC
DNA 2: TGGTGGCTACGACGGGATT
B5: CAACGCC (DNA:RNA)
RNA: B1 RNA with G25C, C26A, U27A, A29G, U30C
DNA 1: CAATCTGAATTCCGGTCTCCC
DNA 2: TGGTGGCTACGACGGGATT
B6: CGAUAGG (DNA:RNA)
RNA: B1 RNA with G25C, C26G, U27A, C28U, U30G, C31G
DNA 1: CAATCTGAATTCCGGTCTCCC
DNA 2: TGGTGGCTACGACGGGATT
B7: GCCUCUG (DNA:RNA)
RNA: B1 RNA with U27C, C28U, A29C, C31G
DNA 1: CAATCTGAATTCCGGTCTCCC
DNA 2: TGGTGGCTACGACGGGATT
B8: CUGUCAA (DNA:RNA)
RNA: GGGAGACCGGAAUUCAGAUUGUCCCUGUCAAUUAAAUCCCGUCGUAGCCACCA
DNA 1: CAATCTGAATTCCGGTCTCCC
DNA 2: TGGTGGCTACGACGGGATT
B9: GGCGCCA (DNA:RNA)
RNA: B8 RNA with C25G, U26G, G27C, U28G, A30C
DNA 1: CAATCTGAATTCCGGTCTCCC
DNA 2: TGGTGGCTACGACGGGATT
B10: AGAGCCC (DNA:RNA)
RNA: B8 RNA with C25A, U26G, G27A, U28G, A30C, A31C
DNA 1: CAATCTGAATTCCGGTCTCCC
DNA 2: TGGTGGCTACGACGGGATT
B11: AGCCGAC (DNA:RNA)
RNA: B1 RNA with G25A, C26G, U27C, A29G, U30A
DNA 1: CAATCTGAATTCCGGTCTCCC
DNA 2: TGGTGGCTACGACGGGATT
B12: UAGUUUU (DNA:RNA)
RNA: B8 RNA with C25U, U26A, C29U, A30U, A31U
DNA 1: CAATCTGAATTCCGGTCTCCC
DNA 2: TGGTGGCTACGACGGGATT
B13: CGAACGA (DNA:RNA)
RNA: B8 RNA with U26G, G27A, U28A, A30G
DNA 1: CAATCTGAATTCCGGTCTCCC
DNA 2: TGGTGGCTACGACGGGATT
B14: UACCACA (DNA:RNA)
RNA: B1 RNA with G25U, C26A, U27C, U30C, C31A
DNA 1: CAATCTGAATTCCGGTCTCCC
DNA 2: TGGTGGCTACGACGGGATT
B15: GCUUAAA (DNA:RNA)
RNA: B1 RNA with C28U, U30A, C31A
DNA 1: CAATCTGAATTCCGGTCTCCC
DNA 2: TGGTGGCTACGACGGGATT
B16: AAGGAGC (DNA:RNA)
RNA: B1 RNA with G25A, C26A, U27G, C28G, U30G
DNA 1: CAATCTGAATTCCGGTCTCCC
DNA 2: TGGTGGCTACGACGGGATT
B17: AGUCCCC (DNA:RNA)
RNA: B1 RNA with G25A, C26G, A29C, U30C
DNA 1: CAATCTGAATTCCGGTCTCCC
DNA 2: TGGTGGCTACGACGGGATT
B18: AUCGACC (DNA:RNA)
RNA: B1 RNA with G25A, C26U, U27C, C28G, U30C
DNA 1: CAATCTGAATTCCGGTCTCCC
DNA 2: TGGTGGCTACGACGGGATT
B19: ACUGGAU (DNA:RNA)
RNA: B1 RNA with G25A, C28G, A29G, U30A, C31U
DNA 1: CAATCTGAATTCCGGTCTCCC
DNA 2: TGGTGGCTACGACGGGATT
B20: UAUCUCG (DNA:RNA)
RNA: B1 RNA with G25U, C26A, A29U, U30C, C31G
DNA 1: CAATCTGAATTCCGGTCTCCC
DNA 2: TGGTGGCTACGACGGGATT
B21: GGGCUUC (DNA:RNA)
RNA: B1 RNA with C26G, U27G, A29U
DNA 1: CAATCTGAATTCCGGTCTCCC
DNA 2: TGGTGGCTACGACGGGATT
B22: AUAUAGC (DNA:RNA)
RNA: B8 RNA with C25A, G27A, C29A, A30G, A31C
DNA 1: CAATCTGAATTCCGGTCTCCC
DNA 2: TGGTGGCTACGACGGGATT
B23: AGGUAUU (DNA:RNA)
RNA: B8 RNA with C25A, U26G, C29A, A30U, A31U
DNA 1: CAATCTGAATTCCGGTCTCCC
DNA 2: TGGTGGCTACGACGGGATT
B24: AAGGGAC (DNA:RNA)
RNA: B8 RNA with C25A, U26A, U28G, C29G, A31C
DNA 1: CAATCTGAATTCCGGTCTCCC
DNA 2: TGGTGGCTACGACGGGATT
B25: ACGCCCU (DNA:RNA)
RNA: B8 RNA with C25A, U26C, U28C, A30C, A31U
DNA 1: CAATCTGAATTCCGGTCTCCC
DNA 2: TGGTGGCTACGACGGGATT
B26: UCACGGA (DNA:RNA)
RNA: B1 RNA with G25U, U27A, A29G, U30G, C31A
DNA 1: CAATCTGAATTCCGGTCTCCC
DNA 2: TGGTGGCTACGACGGGATT
B27: CCUCACA (DNA:RNA)
RNA: B1 RNA with G25C, U30C, C31A
DNA 1: CAATCTGAATTCCGGTCTCCC
DNA 2: TGGTGGCTACGACGGGATT
B28: GUUUCUA (DNA:RNA)
RNA: B8 RNA with C25G, G27U, A30U
DNA 1: CAATCTGAATTCCGGTCTCCC
DNA 2: TGGTGGCTACGACGGGATT
B29: AAUCCAA (DNA:RNA)
RNA: B8 RNA with C25A, U26A, G27U, U28C
DNA 1: CAATCTGAATTCCGGTCTCCC
DNA 2: TGGTGGCTACGACGGGATT
B30: GGGCUCA (DNA:RNA)
RNA: B8 RNA with C25G, U26G, U28C, C29U, A30C
DNA 1: CAATCTGAATTCCGGTCTCCC
DNA 2: TGGTGGCTACGACGGGATT
B31: GUUGACU (DNA:RNA)
RNA: B1 RNA with C26U, C28G, U30C, C31U
DNA 1: CAATCTGAATTCCGGTCTCCC
DNA 2: TGGTGGCTACGACGGGATT

Each binder was assayed against T1, RBFOX1 RRM (assay: EMSA; HiTS-Eq, 1 nM pool, 10 min; buffer printed only for the single-RNA assays: 10 mM Tris pH 7.5, 150 mM NaCl, 3.4 mM EDTA, 0.001% NP-40, 30 C). Settings: tags: His6 N-terminal (pET28a); label: 5' 32P.
Method in brief: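 These values rest on relative association constants, computed from read-count changes of each RNA species versus the control reaction and normalised to the cognate motif. Reads came from free RNA recovered by 8% native PAGE after purified RbFox RRM (wild type or mutant) at increasing concentrations was equilibrated for 10 min in 50 µL with 1 nM of a 5′-radiolabelled pool with 7 randomized nucleotides and DNA-annealed flanks.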
B1 was tested, and the binding signal was 0.0109 KA relative to UGCAUGU.
With B2 the binding signal was 0.0174 KA relative to UGCAUGU.
With B3 the binding signal was 0.00577 KA relative to UGCAUGU.
B4 was tested, and the binding signal was 0.00334 KA relative to UGCAUGU.
B5 was tested, and the binding signal was 0.00593 KA relative to UGCAUGU.
For B6, the binding signal was 0.0113 KA relative to UGCAUGU.
B7 was tested, and the binding signal was 0.0199 KA relative to UGCAUGU.
B8 was tested, and the binding signal was 0.00899 KA relative to UGCAUGU.
B9 was tested, and the binding signal was 0.00258 KA relative to UGCAUGU.
In the case of B10, the binding signal is reported as 0.0053 KA relative to UGCAUGU.
For B11, the binding signal was 0.00754 KA relative to UGCAUGU.
B12 was tested, and the binding signal was 0.0126 KA relative to UGCAUGU.
B13 was tested, and the binding signal was 0.011 KA relative to UGCAUGU.
B14 was tested, and the binding signal was 0.000943 KA relative to UGCAUGU.
B15 was tested, and the binding signal was 0.00504 KA relative to UGCAUGU.
For B16, the binding signal was 0.00637 KA relative to UGCAUGU.
B17 was tested, and the binding signal was 0.0101 KA relative to UGCAUGU.
In the case of B18, the binding signal is reported as 0.00286 KA relative to UGCAUGU.
In the case of B19, the binding signal is reported as 0.00627 KA relative to UGCAUGU.
B20 was tested, and the binding signal was 0.00982 KA relative to UGCAUGU.
In the case of B21, the binding signal is reported as 0.0114 KA relative to UGCAUGU.
For B22, the binding signal was 0.0016 KA relative to UGCAUGU.
B23 was tested, and the binding signal was 0.0064 KA relative to UGCAUGU.
In the case of B24, the binding signal is reported as 0.00883 KA relative to UGCAUGU.
In the case of B25, the binding signal is reported as 0.00244 KA relative to UGCAUGU.
In the case of B26, the binding signal is reported as 0.00406 KA relative to UGCAUGU.
In the case of B27, the binding signal is reported as 0.0028 KA relative to UGCAUGU.
With B28 the binding signal was 0.0101 KA relative to UGCAUGU.
B29 was tested, and the binding signal was 0.00298 KA relative to UGCAUGU.
B30 was tested, and the binding signal was 0.0218 KA relative to UGCAUGU.
In the case of B31, the binding signal is reported as 0.0189 KA relative to UGCAUGU.
